Several values for one entry are separate records, joined by “and”; a condition that tells them apart may be missing. Equal entries are not always repeated. Out of some 360,000 compounds screened, about 6,000 (1.7%) were called active. Inconclusive results, whose numbers are uncertain, are shown with a selection of clear calls. Calls follow the shape of the dose curve; as a rule, active = well fitted cell-killing curve with a large enough effect; inconclusive = small, poorly fitted or top-dose-only effect, or effect the other way; inactive = flat fitted curve, though single readings scatter. A potency beside an inconclusive call is a rough fit, not a confirmed value.
Test: qHTS for induction of synthetic lethality in tumor cells producing 2HG: qHTS for the HT-1080-NT fibrosarcoma cell line;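 also: NT is the 2HG producing partner of a matched IDH1 knockdown line; nearly all actives have a fitted effect of over 55% in size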;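 as to activity, negative = less viability: 0% = DMSO-treated cells and -100% = media-only wells without cells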
Conditions: HT-1080-NT fibrosarcoma viability, CellTiter-Glo ATP luminescence, 48 h; activity, negative = less viability: at 46.1 µM (top of the series) unless noted
Summary of the method: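 HT-1080-NT fibrosarcoma cells (2HG-overproducing), 750 cells/well in RPMI with 5% FBS, dosed after 2 h and incubated 48 h at 37C. CellTiter-Glo luminescence normalized to DMSO and no-cell wells; concentration-response curves fitted and classed.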
Potency is read from the fitted curve at half-maximal effect; tags tell the direction and shape of the fitted curve.

Row | Compound | Potency | activity, negative = less viability
1 | COc1ccc(-c2nn(-c3ccccc3)cc2/C=N/NC(N)=S)cc1OC | active: 0.731 µM | –
2 | CCCNC(=O)c1ccc(N2CCC3(CC2)CC(c2cccc(Br)c2)=NO3)c([N+](=O)[O-])c1 | inactive | –
3 | COc1ccc2sc3cccc(NCCN(C)C)c3c(=O)c2c1 | active: 16.4 µM | –
4 | Cc1ccc(C)c(NC(=O)C(Sc2nc3ccc(C)cc3[nH]2)c2ccccc2)c1 (stereo unspecified) | inconclusive: 14.6 µM [cytotoxic, partial curve] | –
5 | O=C(O)CC(CC(=O)Nc1ccc(N2CCOCC2)cc1)c1ccccc1 (stereo unspecified) | inconclusive: 13 µM [rising, partial curve, poor fit] | –
6 | COc1ccccc1-n1c(SCC(=O)Nc2ccccc2C)nc(O)cc1=O | inactive | –
7 | CCCCCc1cc(=O)oc2c(C(CCN(CC)CC)c3cc(OC)c(OC)c(OC)c3)c(OC)cc(OC)c12 (stereo unspecified) | inconclusive: 20.6 µM [cytotoxic, single point] | –
8 | CCOc1ccc(C(=O)Nc2cc(C)ccn2)cc1 | inconclusive: 8.2 µM [cytotoxic, partial curve] | –
9 | CCCCCc1c(-c2ccc(OC)cc2)ncn1CCc1ccccc1OC | active: 20.6 µM | –
10 | COc1cccc(NC(=O)COC(=O)/C=C/c2c(C)nn(-c3ccccc3)c2C)c1 | inactive | –
11 | Cc1ccccc1OCC(=O)Nc1ccc(Cc2ccncc2)cc1 | inactive | –
12 | C=C(C)C(=O)O[C@H]1C/C(C)=C\C(=O)/C=C(\C)[C@H](O)[C@@H]2OC(=O)C(=C)[C@@H]21 | inconclusive: 20.6 µM [cytotoxic, single point] | –
13 | CC(C)(C)c1ccc(/C=N/OCC(=O)NCc2ccccc2)cc1 | inconclusive: 29.1 µM [cytotoxic, single point] | –
14 | CC(=O)c1ccc(OCCCC(=O)NNC(=O)c2ccccn2)cc1 | – | inactive: -1.56% [at 9.24 µM]
15 | COCCCNC(=S)N1CCN(c2nc(-c3ccc(F)cc3)cs2)CC1 | inconclusive: 23.1 µM [cytotoxic, single point] | –
16 | c1ccc2c(c1)CNc1ccccc1-2 | inactive | –
17 | CCOc1cc(/C=C2\COc3ccccc3C2=O)ccc1OCC(=O)N(C)C | active: 25.9 µM | –
18 | CC(CN(C)Cc1ccccc1)OC(=O)c1cccc(F)c1 (stereo unspecified) | inactive | –
19 | CCCOc1cccn2c(N(C)C(=O)c3ccccc3F)c(CC)nc12 | inconclusive: 29.1 µM [rising, single point] | –
20 | CCOc1ccc(C(=O)Nc2ccc(-c3nc4ccccc4[nH]3)cc2)cc1[N+](=O)[O-] | inconclusive: 28.2 µM [cytotoxic, single point] and inconclusive: 18.4 µM [cytotoxic, single point] | –
21 | Nc1cc(=O)[nH]c(SCC(=O)N2CCCc3ccccc32)n1 | inactive | –
22 | Nc1cc(=O)[nH]c(SCC(=O)N2N=C(c3ccc4ccccc4c3)CC2c2ccccc2)n1 (stereo unspecified) | inconclusive: 7.31 µM [cytotoxic, partial curve] | –
23 | CCOc1cccc(-c2c(C(=O)N/N=C(\C)c3ccccn3)nnn2-c2nonc2N)c1 | inconclusive: 2.91 µM [cytotoxic, full curve] | –
24 | CCOC(=O)CN1C(=O)C(CC)Oc2ccccc21 (stereo unspecified) | inactive | –

Row | Compound | Potency | activity, negative = less viability
25 | O=C(N/N=C/c1c(O)ccc2ccccc12)c1cccc(C(F)(F)F)c1 | inconclusive: 4.61 µM [cytotoxic, partial curve] | –
26 | COc1ccc(/C=C/C(=O)OCC(=O)Nc2cccc(S(=O)(=O)NC3=NCCCCC3)c2)cc1 | inactive | –
27 | COc1cc2cc(CCOC(=O)c3ccc(C#N)cc3)oc(=O)c2cc1OC | inactive | –
28 | COc1cccc(C(=O)NCC(C)(C)SCc2ccc(F)cc2)c1 | inactive | –
29 | CC1=C(Nc2ccc(C(=O)O)cc2)C(=O)c2ccccc2C1=O | inconclusive: 16.4 µM [cytotoxic, single point] | –
30 | CCN1C(=O)/C(=C2/C(=O)N3c4c(cc(OC(C)=O)cc42)C(C)=CC3(C)C)SC1=S | inconclusive: 29.1 µM [rising, single point] | –
31 | COc1ccccc1C(=O)Nc1ccc2c(c1)nc1n2CCN(C2CCCCC2)C1 | inconclusive: 16.4 µM [cytotoxic, partial curve] | –
32 | C[N+]1(CC(=O)OC2CCCCCCCCCCC2)CCCC1 | inconclusive: 7.31 µM [cytotoxic, partial curve] | –
33 | C=CCC1(CC=C)CCCN1C(=O)c1cc(COc2ccc(C)nc2)on1 | active: 20.6 µM | –
34 | CN(CC(=O)Nc1ccc(N2CCOCC2)cc1)C(=O)CCCOc1ccc(Cl)cc1Cl | inconclusive: 13 µM [cytotoxic, partial curve] | –
35 | CNC(=S)Nc1ccc(-c2nc3ccc(C)cc3s2)cc1 | inconclusive: 16.4 µM [cytotoxic, single point] | –
36 | NC(=O)c1ccc2c(=O)n3c(-c4cc(Cl)c(N)c(Cl)c4)csc3nc2c1 | inconclusive: 20.6 µM [cytotoxic, partial curve] | –
37 | N#Cc1c(NC(=O)CSc2ncc(-c3ccccc3)n2CC2CCCO2)sc2c1CCCC2 (stereo unspecified) | inconclusive: 8.91 µM [cytotoxic, partial curve] | –
38 | O[C@@H]1CN(Cc2cccs2)[C@@H](c2ccc(Cl)cc2)C[C@H]1n1cc(-c2ccc(F)cc2)nn1 | inconclusive: 20.6 µM [cytotoxic, partial curve] | –
39 | CC(=O)O[C@H]1C(=O)[C@]2(C)[C@H]([C@H](OC(=O)c3ccccc3)[C@]3(O)C[C@H](OC(=O)[C@H](O)[C@@H](NC(=O)c4ccccc4)c4ccccc4)C(C)=C1C3(C)C)[C@]1(OC(C)=O)CO[C@@H]1C[C@@H]2O | inconclusive: 0.0366 µM [cytotoxic, full curve] | –
40 | CC1CCCN(C(=O)C2CCN(CCCc3ccccc3)CC2)C1 (stereo unspecified) | inconclusive: 58 µM [rising, partial curve, poor fit] | –
41 | CC(C)C[C@H]1CN([C@@H](Cc2ccccc2)CN2CCC[C@@H]2CN2C(=O)C(=O)NC[C@@H]2Cc2ccccc2)C(=O)C(=O)N1CC1CCCCC1 | inconclusive: 18.4 µM [cytotoxic, single point] | –
42 | COc1ccc(/C=C2/CCC(CN3CCOCC3)C2=O)cc1 (stereo unspecified) | inconclusive: 29.1 µM [cytotoxic, single point] | –
43 | CCC/C=C1/CCCOC(C(=O)NCc2ccc(C)o2)(C(F)(F)F)C1 (stereo unspecified) | – | inconclusive: -30% [cytotoxic]
44 | COc1cccc(/C=N/NC(=O)c2ccc(=O)[nH]n2)c1O | inconclusive: 18.4 µM [cytotoxic, single point] | –
45 | CCOC(=O)/C(=C(/C)N)C1CC(=O)NC1=O (stereo unspecified) | inactive | –
46 | Cc1ccc(NNC(=O)C2CCC2)cc1C | inconclusive: 4.61 µM [cytotoxic, full curve] | –
47 | CCOc1ccc(CCNC(=O)COC(=O)c2c(C)nn(-c3ccccc3)c2C)cc1OCC | inactive | –
48 | Cc1cc2oc3ccc(NCCCn4ccnc4)cc3c(=O)c2cc1C | inconclusive: 29.1 µM [cytotoxic, single point] | –

Row | Compound | Potency | activity, negative = less viability
49 | COc1cc(-c2csc(C)n2)ccc1O | inactive | –
50 | OC[C@@H]1[C@@H](c2ccccc2)C(c2cccc(Cl)c2)=NN1c1ccccc1 | active: 11.6 µM | –
51 | CC[n+]1c(/C=C2/C=C(C)CC(C)(C)C2)sc2ccc(OC)cc21 | active: 20.6 µM | –
52 | C/C(=N\N=C(N)N)c1cccc([N+](=O)[O-])c1 | inactive | –
53 | Cc1noc(C)c1CS(=O)(=O)c1ccc([N+](=O)[O-])cc1 | – | inconclusive: -15.1% [cytotoxic]
54 | NC(=O)c1c(NC(=O)c2ccccc2)sc2c1CCN(Cc1ccccc1)C2 | inconclusive: 29.1 µM [cytotoxic, single point] | –
55 | O=C(O)CC/C(=N/Nc1ccc([N+](=O)[O-])cc1)C(=O)O | active: 1.64 µM | –
56 | COc1ccc(N2C3=C(CC4=C2CC(C)(C)CC4=O)C(=O)CC(C)(C)C3)cc1 | active: 7.08 µM | –
57 | COc1ccc(Br)cc1CN1CCN(C(=O)c2ccc(OC)c(OC)c2)CC1 | inactive | –
58 | Cc1cccc(-n2cnc3cc(C(=O)NCC4CCCO4)ccc32)c1 (stereo unspecified) | inconclusive: 25.9 µM [cytotoxic, single point] | –
59 | Cc1sc2nc(C3CC3)nc(NCCNS(=O)(=O)c3ccccc3)c2c1C | inconclusive: 35.5 µM [cytotoxic, single point] | –
60 | COc1cccc(SCc2noc(C(=O)NCCN(C)C)c2C(=O)NCCN(C)C)c1 | inactive | –
61 | Cc1c(Cl)cccc1NC(=S)NCc1ccccc1 | inactive | –
62 | S=C(Nc1ccccc1)c1ccccn1 | inconclusive: 16.4 µM [cytotoxic, single point] | –
63 | Cc1ccc(Nc2nc(-c3ccc(S(=O)(=O)N4CCCC4)cc3)cs2)cc1C | inconclusive: 11.2 µM [cytotoxic, single point] | –
64 | CCOC(=O)C#CC(CCc1ccccc1)OS(N)(=O)=O (stereo unspecified) | inactive | –
65 | CSc1nnc(-c2ccc(C(F)(F)F)nc2C)o1 | inconclusive: 29.1 µM [rising, single point] | –
66 | CCOc1ccc(NC(=S)N2CCC(NC(=O)c3ccccc3C)CC2)cc1 | inactive | –
67 | Cc1ccc(N2CCN(/N=C/c3c(C)nn(-c4ccccc4)c3Cl)CC2)cc1 | – | inconclusive: 35.5%
68 | CNS(=O)(=O)c1ccc(CNC[C@H]2O[C@@H](n3cc(C)c(=O)[nH]c3=O)C[C@@H]2O)cc1 | inactive | –
69 | Cc1ccc(NC2=CC(=O)CC(C)(C)C2)cc1Cl | inconclusive: 23.1 µM [cytotoxic, single point] | –
70 | Cn1cccc1/C=C1\SC(=Nc2cccc(O)c2)NC1=O | inconclusive: 18.4 µM [cytotoxic, single point] | –
71 | O=C(Nc1ccc(O)cc1)C1CCCN1S(=O)(=O)c1ccc(F)cc1 (stereo unspecified) | inconclusive: 5.17 µM [rising, full curve] | –

From PubChem BioAssay AID686970 (National Center for Advancing Translational Sciences (NCATS), 2013)
